The list shows a part of the results.
Tests used:
Assay in all cases: glycan array binding signal (z-score within array); higher = stronger binding
Settings in all cases: glycan notation: IUPAC condensed, linker removed
Gal(a1-4)GlcNAc = molecular target: Gal(a1-4)GlcNAc
Summary of the method: (§1)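 The binding signal is a Z-score computed within each array and averaged over linkers. Arrays of the same protein sequence at different concentrations or buffers were also averaged together. Data originate from 3228 arrays in the Consortium for Functional Glycomics database, kept only where the protein sequence was available.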

Gal(a1-6)Glc = molecular target: Gal(a1-6)Glc
Summary of the method: as §1

Gal(b1-2)Gal = molecular target: Gal(b1-2)Gal
Summary of the method: as §1

Gal(b1-3)Gal = molecular target: Gal(b1-3)Gal
Summary of the method: as §1

Gal(b1-3)GalNAc = molecular target: Gal(b1-3)GalNAc
Summary of the method: as §1

[1] = molecular target: Gal(b1-3)GalNAc(b1-3)Gal(a1-4)Gal(b1-4)Glc
Summary of the method: as §1

[2] = molecular target: Gal(b1-3)GalNAc(b1-3)Gal(b1-4)Glc
Summary of the method: as §1

[3] = molecular target: Gal(b1-3)GalNAc(b1-3)Gal(b1-4)GlcNAc
Summary of the method: as §1

[4] = molecular target: Gal(b1-3)GalNAc(b1-4)Gal(b1-4)Glc
Summary of the method: as §1

[5] = molecular target: Gal(b1-3)GalNAc(b1-4)[Neu5Ac(a2-3)]Gal(b1-4)Glc
Summary of the method: as §1

[6] = molecular target: Gal(b1-3)[Fuc(a1-4)]GlcNAc
Summary of the method: as §1

[7] = molecular target: Gal(b1-3)[Fuc(a1-4)]GlcNAc(b1-3)Gal(b1-4)GlcNAc
Summary of the method: as §1

[8] = molecular target: Gal(b1-3)[Fuc(a1-4)]GlcNAc(b1-3)Gal(b1-4)[Fuc(a1-3)]GlcNAc
Summary of the method: as §1

[9] = molecular target: Gal(b1-3)[GlcNAc(b1-6)]GalNAc
Summary of the method: as §1

[10] = molecular target: Gal(b1-3)[GlcNAc(b1-6)]GlcNAc
Summary of the method: as §1

[11] = molecular target: Gal(b1-3)[Neu5Ac(a2-6)]GalNAc
Summary of the method: as §1

[12] = molecular target: Gal(b1-3)[Neu5Ac(a2-6)]GlcNAc
Summary of the method: as §1

[13] = molecular target: Gal(b1-3)[Neu5Ac(a2-6)]GlcNAc(a1-4)Gal(b1-4)Glc
Summary of the method: as §1

[14] = molecular target: Gal(b1-3)[Neu5Ac(b2-6)]GlcNAc
Summary of the method: as §1

[15] = molecular target: Gal(b1-4)GalNAc(a1-3)[Fuc(a1-2)]Gal(b1-4)GlcNAc
Summary of the method: as §1

[16] = molecular target: Gal(b1-4)GalNAc(b1-3)[Fuc(a1-2)]Gal(b1-4)GlcNAc
Summary of the method: as §1

Gal(b1-4)Glc = molecular target: Gal(b1-4)Glc
Summary of the method: as §1

Gal(b1-4)Glc6S = molecular target: Gal(b1-4)Glc6S
Summary of the method: as §1

Gal(b1-4)GlcNAc = molecular target: Gal(b1-4)GlcNAc
Summary of the method: as §1

[17] = molecular target: Gal(b1-4)GlcNAc(b1-2)Man(a1-3)[Gal(b1-4)GlcNAc(b1-2)Man(a1-6)]Man(b1-4)GlcNAc(b1-4)GlcNAc
Summary of the method: as §1

[18] = molecular target: Gal(b1-4)GlcNAc(b1-3)Gal(b1-4)Glc
Summary of the method: as §1

[19] = molecular target: Gal(b1-4)GlcNAc(b1-3)Gal(b1-4)GlcNAc
Summary of the method: as §1

[20] = molecular target: Gal(b1-4)GlcNAc(b1-3)Gal(b1-4)GlcNAc(b1-3)Gal(b1-4)GlcNAc
Summary of the method: as §1

[21] = molecular target: Gal(b1-4)GlcNAc(b1-3)Gal(b1-4)[Fuc(a1-3)]GlcNAc(b1-3)Gal(b1-4)[Fuc(a1-3)]GlcNAc
Summary of the method: as §1

[22] = molecular target: Gal(b1-4)GlcNAc(b1-3)GalNAc
Summary of the method: as §1

[23] = molecular target: Gal(b1-4)GlcNAc(b1-3)[Gal(b1-4)GlcNAc(b1-6)]GalNAc
Summary of the method: as §1

[24] = molecular target: Gal(b1-4)GlcNAc(b1-6)GalNAc
Summary of the method: as §1

[25] = molecular target: Gal(b1-4)GlcNAc(b1-6)[Gal(b1-3)]GalNAc
Summary of the method: as §1

[26] = molecular target: Gal(b1-4)GlcNAc(b1-6)[Gal(b1-3)]GlcNAc
Summary of the method: as §1

Gal3S(b1-3)GalNAc = molecular target: Gal3S(b1-3)GalNAc
Summary of the method: as §1

Gal3S(b1-3)GlcNAc = molecular target: Gal3S(b1-3)GlcNAc
Summary of the method: as §1

[27] = molecular target: Gal3S(b1-3)[Fuc(a1-4)]GlcNAc
Summary of the method: as §1

Gal3S(b1-4)Glc = molecular target: Gal3S(b1-4)Glc
Summary of the method: as §1

Gal3S(b1-4)Glc6S = molecular target: Gal3S(b1-4)Glc6S
Summary of the method: as §1

Gal3S(b1-4)GlcNAc = molecular target: Gal3S(b1-4)GlcNAc
Summary of the method: as §1

Gal3S(b1-4)GlcNAc6S = molecular target: Gal3S(b1-4)GlcNAc6S
Summary of the method: as §1

Gal3S6S(b1-4)GlcNAc = molecular target: Gal3S6S(b1-4)GlcNAc
Summary of the method: as §1

Gal3S6S(b1-4)GlcNAc6S = molecular target: Gal3S6S(b1-4)GlcNAc6S
Summary of the method: as §1

Gal4S(b1-4)GlcNAc = molecular target: Gal4S(b1-4)GlcNAc
Summary of the method: as §1

Gal4S6S(b1-4)GlcNAc = molecular target: Gal4S6S(b1-4)GlcNAc
Summary of the method: as §1

B1: EcCDA (Encephalitazoon cuniculi), Q8SU65 (protein)
chain: MLLCLLYFTSSWCSGSDVPDVCTNSGMIAINFVDGPVRGVTDRILNTLDELGVKATFSFTVNQKAVGNVGQLYRRAVEEGHNVALRVDPSMDEGYQCLSQDALENNVDREIDTIDGLSGTEIRYAAVPICNGQVNSEMYNILTERGVLPVGYTFCPYDYDDPVGEFESMIEGSDPKHHSFIILMHDGQEADTSRLENMVKIGKDKGYRFVNMDECLQGYKGAPGDPELSLRGKGVESIGKGFLPFFLMMLVRLL
Gal(a1-4)GlcNAc
  glycan array binding signal (z-score): 0.111
Gal(a1-6)Glc
  glycan array binding signal (z-score): 3.02
Gal(b1-2)Gal
  glycan array binding signal (z-score): -0.328
Gal(b1-3)Gal
  glycan array binding signal (z-score): -0.337
Gal(b1-3)GalNAc
  glycan array binding signal (z-score): -0.287
[1]
  glycan array binding signal (z-score): -0.316
[2]
  glycan array binding signal (z-score): -0.397
[3]
  glycan array binding signal (z-score): -0.363
[4]
  glycan array binding signal (z-score): 0.809
[5]
  glycan array binding signal (z-score): -0.234
[6]
  glycan array binding signal (z-score): -0.277
[7]
  glycan array binding signal (z-score): -0.216
[8]
  glycan array binding signal (z-score): -0.388
[9]
  glycan array binding signal (z-score): -0.324
[10]
  glycan array binding signal (z-score): -0.413
[11]
  glycan array binding signal (z-score): -0.083
[12]
  glycan array binding signal (z-score): -0.012
[13]
  glycan array binding signal (z-score): -0.44
[14]
  glycan array binding signal (z-score): -0.401
[15]
  glycan array binding signal (z-score): 1.01
[16]
  glycan array binding signal (z-score): 0.124
Gal(b1-4)Glc
  glycan array binding signal (z-score): -0.332
Gal(b1-4)Glc6S
  glycan array binding signal (z-score): -0.35
Gal(b1-4)GlcNAc
  glycan array binding signal (z-score): 0.097
[17]
  glycan array binding signal (z-score): 1.57
[18]
  glycan array binding signal (z-score): -0.394
[19]
  glycan array binding signal (z-score): -0.244
[20]
  glycan array binding signal (z-score): -0.411
[21]
  glycan array binding signal (z-score): 0.385
[22]
  glycan array binding signal (z-score): -0.319
[23]
  glycan array binding signal (z-score): -0.371
[24]
  glycan array binding signal (z-score): -0.303
[25]
  glycan array binding signal (z-score): -0.1
[26]
  glycan array binding signal (z-score): -0.237
Gal3S(b1-3)GalNAc
  glycan array binding signal (z-score): 0.115
Gal3S(b1-3)GlcNAc
  glycan array binding signal (z-score): -0.237
[27]
  glycan array binding signal (z-score): -0.196
Gal3S(b1-4)Glc
  glycan array binding signal (z-score): 0.022
Gal3S(b1-4)Glc6S
  glycan array binding signal (z-score): 5.58
Gal3S(b1-4)GlcNAc
  glycan array binding signal (z-score): 0.171
Gal3S(b1-4)GlcNAc6S
  glycan array binding signal (z-score): -0.289
Gal3S6S(b1-4)GlcNAc
  glycan array binding signal (z-score): -0.044
Gal3S6S(b1-4)GlcNAc6S
  glycan array binding signal (z-score): -0.295
Gal4S(b1-4)GlcNAc
  glycan array binding signal (z-score): -0.202
Gal4S6S(b1-4)GlcNAc
  glycan array binding signal (z-score): -0.213
